B1: GPR68, Q15743 (parent)
chain: MGNITADNSSMSCTIDHTIHQTLAPVVYVTVLVVGFPANCLSLYFGYLQIKARNELGVYLCNLTVADLFYICSLPFWLQYVLQHDNWSHGDLSCQVCGILLYENIYISVGFLCCISVDRYLAVAHPFRFHQFRTLKAAVGVSVVIWAKELLTSIYFLMHEEVIEDENQHRVCFEHYPIQAWQRAINYYRFLVGFLFPICLLLASYQGILRAVRRSHGTQKSRKDQIQRLVLSTVVIFLACFLPYHVLLLVRSVWEASCDFAKGVFNAYHFSLLLTSFNCVADPVLYCFVSETTHRDLARLRGACLAFLTCSRTGRAREAYPLGAPEASGKSGAQGEEPELLTKLHPAFQTPNSPGSGGFPTGRLA

Data set [1] covers variants of B1. The experiment in a line: cAMP reporter score (Enrich2 score, wild type = 0); higher = more signal; HEK293T, FACS bins.
In data set [2] the parent is B1. In words: surface expression score (Enrich2 score, wild type = 0); higher = more signal; HEK293T, FACS bins.

Results on four variants are retold here after the GPR68 mutational scans of Howard et al. (2025).

Scores with a large standard error are left out. Not listed are two conditions whose scores span a narrow range. Read del as a deletion of the residues named and ins as an insertion between two positions. For some assays here: How much ogerin was present is not stated here.

In the case of MGNITADNSSMSCTIDHTIHQTLAPVVYVTVLVVGFPANCLSLYFGYLQIKARNELGVYLCNLTVADLFYICSLPFWLQYVLQHDNWSHGDLSCQVCGILLYENIYISVGFLCCISVDRYLAVAHPFRFHQFRTLKAAVGVSVVIWAKELLTSIYFLMHEEVIEDENQHRVCFEHYPIQAWQRAINYYRFLVGFLFPICLLLASYQGILRAVRRSHGTQKSRKDQIQRLVLSTVVIFLACFLPYHVLLLVRSVWEASCDFAKGVFNAYHFSLLLTSFNCVADPVLYCFVSETTHRDLARLRGACLAFLTCSRTGRAREAYPLGAPEASGKSGAQGEEPELLTKLHPAFQTPNSYGSGGFPTGRLA [P354Y], the cAMP reporter score is -0.887 in data set [1] (pH 6); -0.185 in data set [1] (pH 6, modulator: ogerin); -0.968 in data set [1] (pH 6.5, modulator: ogerin). Besides, the surface expression score in data set [2] is 0.101.

In the case of MGNITADNSSMSCTIDHTIHQTLAPVVYVTVLVVGFPANCLSLYFGYLQIKARNELGVYLCNLTVADLFYICSLPFWLQYVLQHDNWSHGDLSCQVCGILLYENIYISVGFLCCISVDRYLAVAHPFRFHQFRTLKAAVGVSVVIWAKELLTSIYFLMHEEVIEDENQHRVCFEHYPIQAWQRAINYYRFLVGFLFPICLLLASYQGILRAVRRSHGTQKSRKDQIQRLVLSTVVIFLACFLPYHVLLLVRSVWEASCDFAKGVFNAYHFSLLLTSFNCVADPVLYCFVSETTHTDLARLRGACLAFLTCSRTGRAREAYPLGAPEASGKSGAQGEEPELLTKLHPAFQTPNSPGSGGFPTGRLA [R295T], the cAMP reporter score came to 0.106 in data set [1] (pH 6); 0.516 in data set [1] (pH 6, modulator: ogerin); 0.917 in data set [1] (pH 6.5, modulator: ogerin). Further, the surface expression score in data set [2] is 0.596.

With P325_A327del, the cAMP reporter score was -0.055 in data set [1] (pH 6); 0.204 in data set [1] (pH 6, modulator: ogerin); 0.201 in data set [1] (pH 6.5, modulator: ogerin). Moreover, in data set [2], the surface expression score turned out to be 0.649.

As to L344_H345insG, the cAMP reporter score in data set [1] (pH 6) was 1.23; in data set [1] (pH 6, modulator: ogerin), 1.6.
